From PubChem BioAssay AID1745853 (National Center for Advancing Translational Sciences (NCATS), 2022)
This is one part of the list. The main result of the screen is listed elsewhere. These columns were measured beside it and carry no call.

Assays:
Assay in all cases: Primary Screen for Target Class Profiling of Small Molecule Inhibitors of Methyltransferases
[1] = target: Glycine N-methyltransferase (Homo sapiens) (UniProt Q14749); conditions: purified enzyme, MTase-Glo SAH luminescence; measured here: GNMT inhibition; at 40 µM; stronger effect = lower value
From the text: (§1) PI: Matthew D. Hall Ph.D. and Quinlin M. Hanson Ph.D.
(§2) National Center for Advancing Translational Sciences (NCATS)
(§3) National Institute of Health (NIH), Rockville, MD
(§4) Target class profiling (TCP) is a chemical biology approach amenable to investigating understudied biological targets. TCP is achieved by developing a generalizable assay platform and applying it to screen a curated set of compound libraries against representative members of a target class. Small molecule methyltransferases (SMMTase) are a subclass of methyltransferase that act on metabolites to modulate signaling pathways, metabolize xenobiotics, or balance the available methyl pool. We screened four curated libraries totaling 27,574 unique compounds against the SMMTases nicotinamide N-methyltransferase (NNMT), phenylethanolamine N-methyltransferase (PNMT), histamine N-methyltransferase (HNMT), glycine N-methyltransferase (GNMT), catechol O-methyltransferase (COMT), and guanidinoacetate N-methyltransferase (GAMT). The data generated by this TCP can be leveraged for informed tool molecule development. For example, in the associated publication we identified a chemotype of HNMT-selective inhibitors. Additionally, we identified a putative SMMTase-selective inhibitor with potential as a tool molecule for studying broader methyltransferase biology.
(§5) High-through put screening assays were developed at the National Center for Advancing Translational Science (NCATS) for the enzymes NNMT, PNMT, HNMT, GNMT, COMT, and GAMT. Enzymatic activity was measured as a function of SAM cofactor conversion using the MTase Glo kit (Promega) for all enzymes. All assays were performed in 1536-well format with substrates and SAM concentrations at KM values. Enzyme concentration and assay timing were optimized for 10-20% SAM conversion. Initial screening of 27,574 compounds was done as single-point assays using the highest compound concentration (40 uM). […] These compounds were replated in 11-point dose response and assayed against NNMT, PNMT, HNMT, GNMT, COMT, GAMT, and a counter-assay. The IC50 and efficacy (maximal response) values were determined for each dose-response curve. These values are also accounted for in the area under the curve (AUC) values.
(§6) PROTOCOL TABLE (as described by Inglese J, Shamu CE and Guy RK. 2007)
(§7) SEQUENCE No. (e.g., 1, 2, 3, etc.); […] (e.g., Cells, Incubation, Reagent, etc.); VALUE; DESCRIPTION.
(§8) 1; Reagent; 2 uL; SMMTase Enzyme (2x) in reaction buffer, columns 1- 48.
(§9) 2; Reagent; 1 uL; SAM (4x) in reaction buffer, columns 1-48.
(§10) 3; Controls; 23 nL; DMSO in column 4; sinefungin in DMSO (0 uM - 40 uM) in 7-point 1:2 dilution series (n = 2) in column 2.
(§11) 4; Compounds; 23 nL; Columns 5-48.
(§12) 5; Reagent; 1 uL; Substrate (4x) in reaction buffer, columns 2-48.
(§13) 6; Time; 20-30 min; Incubation.
(§14) 7; Reagent; 1 uL; MTase-Glo reagent (5X), columns 1-48.
(§15) 8; Time; 30 min; Incubation.
(§16) 9; Reagent; 5 uL; MTase-Glo Detection reagent, columns 1-48.
(§17) 10; Time; 30 min; Incubation, luminescence evolution.
(§18) 11; Detection; Luminescence; ViewLux uHTS Microplate Imager (PerkinElmer).
(§19) NOTES (numbers refer to Sequence numbers above)
(§20) 1, 2, 5. White Medium Binding Greiner 1536-well plates (Cat #789175-F, Greiner Bio-One, Monroe, NC); Reaction buffer: 50 mM Tris, pH 8.0, 3 mM MgCl2, 1 mM EDTA, 50 mM NaCl, 1 mM DTT, and 0.1 mg/mL BSA. Evaporation was prevented by covering assay plates with metal lids containing holes to allow gas diffusion.
(§21) 1. Six SMMTase were profiled: HNMT, GNMT, PNMT, COMT, NNMT, GAMT
(§22) 5. The corresponding substrate was used for each enzyme: HNMT - 5.3 uM Histamine; GNMT - >500 uM Glycine; PNMT - 16.2 uM Norephinephrine; COMT - 13.7 uM Norephinephrine; NNMT - 3.8 uM Nicotinamide; GAMT - 2.5 uM Guanidinoacetate.6, 8, 10. Room temperature
(§23) 6. Final reaction conditions: 10 nM COMT, 5 uM SAM, 15 uM norepinephrine, 50 mM Tris, pH 8.0, 3 mM MgCl2, 1 mM EDTA, 50 mM NaCl, 1 mM DTT, and 0.1 mg/mL BSA; refer to tables 2 and S1 for specific timing.
8. […]

[2] = target: Guanidinoacetate N-methyltransferase (Homo sapiens) (UniProt Q14353); conditions: purified enzyme, MTase-Glo SAH luminescence; measured here: GAMT inhibition; at 40 µM; stronger effect = lower value
From the text: as §1, §2, §3, §4, §5, §6, §7, §8, §9, §10, §11, §12, §13, §14, §15, §16, §17, §18, §19, §20, §21, §22, §23
8. […]

[3] = target: Histamine N-methyltransferase (Homo sapiens) (UniProt P50135); conditions: purified enzyme, MTase-Glo SAH luminescence; measured here: HNMT inhibition; at 40 µM; stronger effect = lower value
From the text: as §1, §2, §3, §4, §5, §6, §7, §8, §9, §10, §11, §12, §13, §14, §15, §16, §17, §18, §19, §20, §21, §22, §23
8. […]

[4] = target: Nicotinamide N-methyltransferase (Homo sapiens) (UniProt P40261); conditions: purified enzyme, MTase-Glo SAH luminescence; measured here: NNMT inhibition; at 40 µM; stronger effect = lower value
From the text: as §1, §2, §3, §4, §5, §6, §7, §8, §9, §10, §11, §12, §13, §14, §15, §16, §17, §18, §19, §20, §21, §22, §23
8. […]

[5] = target: Phenylethanolamine N-methyltransferase (Homo sapiens) (UniProt P11086); conditions: purified enzyme, MTase-Glo SAH luminescence; measured here: PNMT inhibition; at 40 µM; stronger effect = lower value
From the text: as §1, §2, §3, §4, §5, §6, §7, §8, §9, §10, §11, §12, §13, §14, §15, §16, §17, §18, §19, §20, §21, §22, §23
8. […]
On the % scale 0 is the no-effect control and ±100 the full control effect.

| SMILES | activity change, negative = inhibition [1] [%] | activity change, negative = inhibition [2] [%] | activity change, negative = inhibition [3] [%] | activity change, negative = inhibition [4] [%] | activity change, negative = inhibition [5] [%] |
| --- | --- | --- | --- | --- | --- |
| O=C(Nc1ccc(F)cc1)c1cc2cccnn2n1 | -14.6 | -15.8 | -11.3 | -23.4 | -19 |
| CC1CCCC(NC(=O)C2(C)Cn3c(cc4occc43)C(=O)N2Cc2cccc(F)c2)C1C (stereo not drawn) | -6.62 | 2.19 | -4.19 | -1.18 | -3 |
| CCc1nc2c(sc3nc4c(cc32)COC(C)(C)C4)c(=O)n1Cc1ccco1 |  | -11 |  | -22.5 | -9.27 |
| COCCNC(=O)[C@H]1C[C@H](Oc2cccnc2)CN1S(=O)(=O)c1cn(C)cn1 | -0.878 | -0.962 | -0.062 | 1.51 | 4.51 |
| CC1=CC(=O)C(C(C)C)=CC1=O |  | 9.67 |  | -1.67 | 7.07 |
| O=C(O)CC[C@@H]1CN(C(=O)c2ccc(CO)o2)CC[C@@H]1N1CCOCC1 | -4.18 | -4.32 | -4.41 | 0.234 | -7.43 |
| Cc1cc(C)cc(NC(=O)Cn2nc3n(C(C)C)c(=O)c4ccc(C(=O)NCC(C)C)cc4n3c2=O)c1 | 1.95 | 0 | 5.58 | 2.64 | 6.14 |
| Cc1ccc(CNC(=O)N2CCCC(CN3CCC(C)CC3)CC2)cc1 (stereo not drawn) | 0.313 | 0.545 | -7.04 | -1.47 | -1.39 |
| Cc1ccc(N2C(=O)c3cc4sccc4n3CC2(C)C(=O)NC2CCCCCC2)cc1C (stereo not drawn) | -7.82 | -0.452 | -8.89 | -7.69 | -9.73 |
| COc1cc(N2CCC(N(C)C)CC2)ccc1Nc1ncc(Cl)c(Nc2ccccc2P(C)(C)=O)n1 | 1.19 | 5.82 | -60.8 | -13.7 | 5.53 |
| CN(CC1CCOC1)C(=O)c1cccs1 (stereo not drawn) | -7.93 | -13.4 | -6.33 | -21.7 | -16.1 |
| CCCn1cc(C(=O)NCC2COc3cc(OC)ccc3C2)c(C)n1 (stereo not drawn) | -5.67 | -6.41 | 0.4 | -9.9 | -8.63 |
| COc1ccc(N2CCN(CCNS(=O)(=O)c3ccc4[nH]c(=O)[nH]c4c3)CC2)cc1 | 11.1 | 2.2 | 8.65 | 0.898 | 5.87 |
| CC(C)CN(C[C@@H](O)[C@H](Cc1ccccc1)NC(=O)O[C@@H]1CO[C@H]2OCC[C@H]21)S(=O)(=O)c1ccc(N)cc1 | 0.222 |  | -0.886 |  |  |
| Cc1sc(C)c(C(=O)NC2(c3ccc(C(=O)O)cc3)CC2)c1Cc1ccc(C(F)(F)F)cc1 | 4.56 | -1.34 | 10.9 | -23.4 | -4.7 |
| CCOc1ccccc1CNC(=O)c1cc2n(n1)CC(C)(C(=O)NCc1ccccc1)N(C)C2=O (stereo not drawn) | 0.085 | -0.291 | 4.35 | -1.79 | -0.179 |
